The list shows a part of the results.
test system: HSkMC (human skeletal muscle cells); experiment: cytotoxicity call (relative viability < 0.9); details: 10 µM

Row | Structure (SMILES) | cytotoxicity call
1 | CN(Cc1cc(Br)cc(Br)c1N)C1CCCCC1.Cl | inactive
2 | COc1ccc(S(=O)(=O)N(C)C[C@H]2OCCCC[C@H](C)Oc3ccc(NC(=O)Nc4cccc5ccccc45)cc3C(=O)N([C@H](C)CO)C[C@@H]2C)cc1 | inactive
3 | C[C@@H]1CN([C@H](C)CO)C(=O)c2cc(NC(=O)Nc3ccc(F)cc3)ccc2O[C@H]1CN(C)S(=O)(=O)c1cn(C)cn1 | inactive
4 | C[C@@H]1CN([C@@H](C)CO)C(=O)Cc2cc(NC(=O)Nc3ccc(C(F)(F)F)cc3)ccc2O[C@@H]1CN(C)S(=O)(=O)c1ccc(Cl)cc1 | active
5 | COc1ccccc1NC(=O)N(C)C[C@@H]1Oc2ncc(C#CCN(C)C)cc2C(=O)N([C@@H](C)CO)C[C@H]1C | inactive
6 | COc1ccc2c3c(n(c2c1)C)[C@@H](CO)N(C[C@]13CCN(CC1)S(=O)(=O)c1ccccc1)C(=O)c1cccnc1 | inactive
7 | Cc1ccc(S(=O)(=O)N(C)C[C@@H]2OCCCC[C@H](C)Oc3ccc(NC(=O)NC4CCCCC4)cc3C(=O)N([C@H](C)CO)C[C@H]2C)cc1 | inactive
8 | Cc1noc(C)c1NC(=O)N(C)C[C@@H]1OCCCC[C@@H](C)Oc2ccc(NC(=O)Nc3ccccc3)cc2C(=O)N([C@@H](C)CO)C[C@H]1C | inactive
9 | Cn1ncc2c(NN3C(=O)CCC3=O)ncnc21 | inactive
10 | Cc1noc(C)c1NC(=O)N(C)C[C@H]1OCCCC[C@H](C)Oc2ccc(NC(=O)Nc3ccc(C(F)(F)F)cc3)cc2C(=O)N([C@H](C)CO)C[C@@H]1C | inactive
11 | Cn1c(=O)c2c(nc(SCCNS(=O)(=O)c3ccccc3)n2C)n(C)c1=O | inactive
